The text below walks through data of the supplement of paper PMC9446081.

In all, about 39,000 compounds went through this assay and about 220 (0.56%) showed activity. This is one part of the list.
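Note: static incubation at 37 °C against the wild-type strain, values averaged over two biological replicates.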

The test concerns Escherichia coli K-12 BW25113. As to the kind of experiment: relative growth (OD600 normalised to plate interquartile mean) (fraction); higher = less growth inhibition, active = 0.2 or less. The following applies: 50 µM; LB; incubation time: overnight (16-24 h).
Consider `C[C@@H]1CCCCO[C@@H](CN(C)Cc2ccc(C(F)(F)F)cc2)[C@@H](C)CN([C@@H](C)CO)C(=O)c2cc(NS(C)(=O)=O)ccc2O1`, for which the relative growth is inactive: 0.977. For the compound `COc1ccc(S(=O)(=O)Nc2cccc3c2O[C@H](CN(C)Cc2ccncc2)[C@H](C)CN([C@H](C)CO)C3=O)cc1`, the relative growth is inactive: 1.01. As for `C[C@@H]1CCCCO[C@@H](CN(C)C)[C@H](C)CN([C@H](C)CO)C(=O)c2cc(NC(=O)Nc3cccc4ccccc34)ccc2O1`, the figure is inactive: 1.01; as for `C[C@@H]1CN([C@@H](C)CO)C(=O)c2cc(NS(=O)(=O)c3ccc(Cl)cc3)ccc2O[C@H]1CN(C)Cc1ccc(C(=O)Nc2ccccc2N)cc1`, inactive: 0.994; as for `COCCOC(=O)N1C(=O)[C@@]2(c3cc(C#CCCO)ccc31)[C@H](c1ccccc1OCCO)N1[C@H](c3ccccc3)[C@H](c3ccccc3)OC(=O)[C@H]1[C@@H]2C(=O)NC[C@H](O)c1ccccc1`, inactive: 0.995. In the case of `CCCC(=O)Nc1ccc2c(c1)C(=O)N(C)C[C@@H](OC)[C@H](C)CN(S(=O)(=O)c1cn(C)cn1)[C@H](C)CO2`, the relative growth was inactive: 0.992.

As for `CO[C@H]1CN(C)C(=O)c2cc(NC(=O)CC(F)(F)F)ccc2OC[C@@H](C)N(C(=O)C2CCOCC2)C[C@@H]1C`, the relative growth is inactive: 0.926.

Take `C[C@@H]1CN([C@@H](C)CO)C(=O)c2cccc(NS(C)(=O)=O)c2O[C@@H]1CN(C)C(=O)Nc1ccc2c(c1)OCO2`: the relative growth was inactive: 0.949. `COc1ccc(CN(C)C[C@@H]2OCCCC[C@@H](C)Oc3ccc(NC(=O)Nc4ccccc4)cc3C(=O)N([C@@H](C)CO)C[C@@H]2C)cc1`: the relative growth is inactive: 0.979. For the compound `O=C(C[C@@H]1CC[C@H]2[C@@H](COC[C@@H](O)CN2C(=O)c2ccccn2)O1)NC1CCC1`, the relative growth was inactive: 1.03. Regarding `N[C@@]1(C(=O)O)CO[C@H]2[C@H](C(=O)O)[C@H]21`, the relative growth was inactive: 0.99. In the case of `Cc1cccc(S(=O)(=O)N2C[C@@H](O)COC[C@@H]3O[C@H](CC(=O)NCc4ccncn4)CC[C@H]32)c1`, the relative growth was inactive: 1.01. For `C[C@@H]1CCCCO[C@H](CN(C)C(=O)c2ccccc2)[C@@H](C)CN([C@H](C)CO)C(=O)c2cc(NS(=O)(=O)c3ccccc3)ccc2O1`, the relative growth was inactive: 1.01.

Turning to `C[C@@H]1CN([C@H](C)CO)C(=O)c2cccc(NC(=O)c3cnccn3)c2O[C@H]1CN(C)S(=O)(=O)c1ccc(F)cc1`, the relative growth was inactive: 1.02. The value for `C[C@@H]1CN([C@H](C)CO)C(=O)Cc2cc(NC(=O)CCC(F)(F)F)ccc2O[C@H]1CN(C)S(=O)(=O)c1cn(C)cn1` was inactive: 0.988; that for `COCC#Cc1cnc2c(c1)C(=O)N([C@H](C)CO)C[C@@H](C)[C@@H](CN(C)C(=O)Nc1ccccc1OC)O2` was inactive: 0.999; that for `COc1ccc(S(=O)(=O)N(C)C[C@@H]2Oc3ccc(NS(=O)(=O)c4cccs4)cc3CC(=O)N([C@@H](C)CO)C[C@H]2C)cc1` was inactive: 1.

Consider `CCCC(=O)Nc1ccc2c(c1)C(=O)N(C)C[C@H](OC)[C@H](C)CN(Cc1ccc(-c3ccccn3)cc1)[C@H](C)CO2`, for which the relative growth was inactive: 0.989. Turning to `COc1ccc(CN(C)C[C@@H]2OCCCC[C@@H](C)Oc3ccc(NC(=O)Nc4ccc5c(c4)OCO5)cc3C(=O)N([C@H](C)CO)C[C@@H]2C)cc1`, the relative growth is inactive: 1.01. Regarding `COC(=O)c1cn(CC(=O)Nc2ccon2)nn1`, the relative growth is inactive: 0.982. On to `C[C@H](CO)N1C[C@H](C)[C@H](CN(C)CC2CCCCC2)OCCCC[C@H](C)Oc2ccc(NC(=O)CCCCCC(=O)Nc3ccccc3N)cc2C1=O`, for which the relative growth is inactive: 0.945.

Take `C[C@H](CO)N1C[C@H](C)[C@H](CN(C)Cc2ccc(C(=O)O)cc2)Oc2c(NS(C)(=O)=O)cccc2C1=O`: the relative growth is inactive: 0.995. As for `COc1ccc(S(=O)(=O)Nc2cccc3c2O[C@@H](CN(C)C(=O)Nc2c(C)noc2C)[C@H](C)CN([C@H](C)CO)C3=O)cc1`, the relative growth is inactive: 1.02. As for `C[C@@H]1CN([C@H](C)CO)C(=O)CCCn2cc(nn2)CO[C@@H]1CN(C)C(=O)CCCN(C)C`, the figure is inactive: 0.973. In the case of `C[C@H](CO)N1C[C@H](C)[C@H](CN(C)S(=O)(=O)c2ccccc2)Oc2ccc(NC(=O)c3ccncc3)cc2CC1=O`, the relative growth was inactive: 0.988. As for `COCC#Cc1ccc2c(c1)O[C@H](CN(C)C(=O)C1CCOCC1)[C@H](C)CN([C@@H](C)CO)S2(=O)=O`, the relative growth is inactive: 1.01. For the compound `C[C@@H]1CN([C@@H](C)CO)C(=O)Cc2cc(NC(=O)CCN3CCOCC3)ccc2O[C@H]1CN(C)S(=O)(=O)c1cn(C)cn1`, the relative growth is inactive: 1. `Cc1cccc(NC(=O)C(=O)NCCCO)c1`: the relative growth is inactive: 0.803. For `C[C@@H]1CN([C@@H](C)CO)C(=O)c2ccccc2-c2ccccc2CO[C@H]1CN(C)C(=O)Nc1ccc(-c2ccccc2)cc1`, the relative growth is inactive: 0.984.

`Cc1noc(C)c1NC(=O)N(C)C[C@@H]1Oc2ccc(NS(C)(=O)=O)cc2CC(=O)N([C@@H](C)CO)C[C@H]1C`: the relative growth is inactive: 0.98. As for `Cc1noc(C)c1S(=O)(=O)Nc1ccc2c(c1)CC(=O)N([C@@H](C)CO)C[C@H](C)[C@H](CN(C)Cc1ccc(C(=O)O)cc1)O2`, the figure is inactive: 1. As for `O=C(C[C@H]1C[C@@H]2c3cc(NS(=O)(=O)c4ccccc4)ccc3O[C@@H]2[C@H](CO)O1)NC1CCCCC1`, the figure is inactive: 0.987. As for `O=C(CN1CCOCC1)NCC[C@@H]1CC[C@@H](NC(=O)Cc2ccccn2)[C@H](CO)O1`, the relative growth was inactive: 0.99. Turning to `C[C@H](CO)N1C[C@H](C)[C@H](CN(C)S(=O)(=O)c2cn(C)cn2)Oc2ccc(NC(=O)Cn3cnnn3)cc2CC1=O`, the relative growth is inactive: 0.975. Take `C[N+](C)(C)CCCC[C@@H]1NC(=O)[C@@H]2C[C@H](C(=O)NCCCCCNC(=O)CS)[C@H](c3ccc(O)cc3)N2C1=O`: the relative growth is inactive: 1.01.

For `COc1ccc(S(=O)(=O)N(C)C[C@@H]2OCCCC[C@H](C)Oc3ccc(NC(=O)NC4CCCCC4)cc3C(=O)N([C@H](C)CO)C[C@@H]2C)cc1`, the relative growth is inactive: 1.04.

For `Cc1ccc(CSc2nnc(CCN)o2)cc1`, the relative growth was inactive: 1.01. In the case of `Cn1c(=O)c2c(nc(Sc3nnc(N)s3)n2C)n(C)c1=O`, the relative growth is inactive: 0.967. As for `C[C@H]1CN([C@@H](C)CO)C(=O)Cc2cc(NC(=O)Nc3ccc(F)cc3)ccc2O[C@H]1CN(C)Cc1ccc(Oc2ccccc2)cc1`, the relative growth is inactive: 1. As for `C=CCOC(=O)C1=C[C@@H](c2csc3ccccc23)C[C@@H](OCc2ccc(COC(=O)NCCCCCC(=O)NO)cc2)O1`, the figure is inactive: 0.923; as for `C[C@H](CO)N1C[C@H](C)[C@@H](CN(C)Cc2ccc(-c3ccccc3)cc2)Oc2c(NC(=O)Nc3ccc(F)cc3)cccc2C1=O`, inactive: 0.769; as for `COc1cccc(NC(=O)N[C@@H]2CC[C@H](CC(=O)N3CCN(C)CC3)O[C@H]2CO)c1`, inactive: 0.997. Take `COC(=O)CCc1c(C)[nH]c(=S)[nH]c1=O`: the relative growth was inactive: 1.01. Consider `c1ccc(C(c2c[nH]c3ccccc23)c2c[nH]c3ccccc23)nc1`, for which the relative growth was inactive: 0.985. Consider `COc1ccc(-c2cnc3c(c2)C(=O)N([C@H](C)CO)C[C@H](C)[C@@H](CN(C)C(=O)Cc2ccncc2)O3)cc1`, for which the relative growth was inactive: 0.982. The value for `C[C@@H]1CN([C@@H](C)CO)C(=O)c2cc(NC(=O)Nc3ccc4c(c3)OCO4)ccc2O[C@H]1CN(C)S(=O)(=O)c1cn(C)cn1` was inactive: 0.994; that for `C[C@H](CO)N1C[C@H](C)[C@H](CN(C)Cc2ccncc2)Oc2c(NC(=O)Nc3cccc4ccccc34)cccc2C1=O` was inactive: 0.942; that for `Cc1ccc(S(=O)(=O)Nc2ccc3c(c2)C(=O)N([C@H](C)CO)C[C@@H](C)[C@H](CN(C)C(=O)Nc2ccc(F)cc2)OCCCC[C@@H](C)O3)cc1` was inactive: 1.

In the case of `COc1ccc(NC(=O)Nc2ccc3c(c2)C(=O)N([C@H](C)CO)C[C@H](C)[C@H](CN(C)Cc2ccc(Cl)c(Cl)c2)OCCCC[C@H](C)O3)cc1`, the relative growth was inactive: 1.01.

With `C[C@H]1CN([C@@H](C)CO)C(=O)c2cccc(NC(=O)Nc3ccc(C(F)(F)F)cc3)c2O[C@@H]1CN(C)Cc1ccc(-c2ccccc2)cc1`, the relative growth is inactive: 0.978. As for `COc1ccc(C#Cc2ccc([C@@H]3[C@@H](CO)N4CCCCN(S(=O)(=O)c5cn(C)cn5)C[C@H]34)cc2)cc1`, the figure is inactive: 0.995.

For the compound `CC(C)NC(=O)Nc1ccc2c(c1)C(=O)N([C@@H](C)CO)C[C@H](C)[C@H](CN(C)S(=O)(=O)c1cccs1)O2`, the relative growth was inactive: 1.02. Turning to `Cc1ccc(S(=O)(=O)Nc2ccc3c(c2)C(=O)N([C@H](C)CO)C[C@@H](C)[C@@H](CN(C)Cc2ccncc2)OCCCC[C@@H](C)O3)cc1`, the relative growth is inactive: 0.988.

Take `C[C@@H]1CN([C@@H](C)CO)C(=O)c2cc(NC(=O)NC3CCCCC3)ccc2O[C@H]1CN(C)Cc1ccc(C(F)(F)F)cc1`: the relative growth was inactive: 1.03. On to `Cc1ccc(S(=O)(=O)N2C[C@@H](O)COC[C@H]3O[C@H](CC(=O)NCc4ccc(C(F)(F)F)cc4)CC[C@@H]32)cc1`, for which the relative growth is inactive: 0.992. As for `CC(C)NC(=O)N(C)C[C@@H]1Oc2ccc(NC(=O)Nc3ccc4c(c3)OCO4)cc2C(=O)N([C@H](C)CO)C[C@@H]1C`, the figure is inactive: 1; as for `CN1C(=O)c2cc(NC(=O)c3ccc(C(F)(F)F)cc3)ccc2OC[C@@H]2O[C@@H](CC(=O)NC3Cc4ccccc4C3)CC[C@@H]21`, inactive: 1.03; as for `Cc1noc(C)c1NC(=O)Nc1ccc2c(c1)C(=O)N([C@H](C)CO)C[C@H](C)[C@H](CN(C)S(=O)(=O)c1ccc(Cl)cc1)OCCCC[C@@H](C)O2`, inactive: 0.988. Turning to `Cc1noc(C)c1NC(=O)Nc1ccc2c(c1)C(=O)N([C@H](C)CO)C[C@H](C)[C@@H](CN(C)C(=O)NC1CCCCC1)OCCCC[C@@H](C)O2`, the relative growth was inactive: 0.98.
